The other results are listed elsewhere or left out. Sequences were assembled here from the parent chain. Inactive controls read about 0.05.
B1: TEV protease; numbered along this chain (parent)
chain: MGESLFKGPRDYNPISSSICHLTNESDGHTTSLYGIGFGPFIITNKHLFRRNNGTLVVQSLHGVFKVKDTTTLQQHLVDGRDMIIIRMPKDFPPFPQKLKFREPQREERICLVTTNFQTKSMSSMVSDTSCTFPSGDGIFWKHWIQTKDGQCGSPLVSTRDGFIVGIHSASNFTNTNNYFTSVPKNFMELLTNQEAQQWVSGWRLNADSVLWGGHKVFMVKPEEPFQPVKEATQL

Variants of: B1
Experiment: raw area under fraction-flipped curve 0-4 h after induction (AUC4h, not background-subtracted), DNA-recorder readout of cleavage of the substrate (dimensionless); higher = more cleavage of the substrate by the protease variant
Settings: temperature: 34 °C; time window: 0-4 h after rhamnose induction
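Also: Bxb1 expression induced with 0.2% (w/v) L-rhamnose at OD600 near 0.5, cultures sampled hourly, flipped fraction per protease–substrate barcode pair counted by paired-end Illumina sequencing.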

Variant | area with substrate ENEYFQS | area with substrate ENGYFQS | area with substrate ENKYFQS | area with substrate ENMYFQS | area with substrate ENPYFQS | area with substrate ENQYFQS | area with substrate ENRYFQS | area with substrate ENVYFQS | area with substrate ENNYFQS | area with substrate ENFYFQS
F187K | 0.0583 | 0.0427 | 0.0512 | 0.0531 | 0.0402 | 0.0507 | 0.0906 | 0.0624 |  | 
N206M | 0.0712 |  | 0.0628 |  |  |  |  |  | 0.0662 | 
S209T | 0.0828 |  |  |  | 0.0482 |  | 0.0561 |  |  | 0.0625
G214T | 0.0611 |  |  |  |  |  |  |  |  | 
Q227H | 0.0608 | 0.0755 | 0.0589 |  |  | 0.059 |  |  |  | 0.0439
L235D | 0.0493 | 0.0674 |  | 0.0835 | 0.0659 |  |  |  |  | 0.0709
D79Y |  |  |  |  | 0.0572 |  | 0.0503 | 0.0679 |  | 0.0522
D82S |  | 0.0623 |  |  |  |  |  |  |  | 0.063
G213E |  |  | 0.0692 |  | 0.0846 | 0.0678 |  |  | 0.0542 | 0.0595
G214I |  |  |  |  |  |  |  |  |  | 0.049
P89D |  | 0.0503 |  |  | 0.0561 |  |  | 0.0768 | 0.0614 | 
V157T |  | 0.0562 |  |  |  | 0.0498 |  |  |  | 
K7R |  |  |  |  |  | 0.0642 |  |  |  | 
S135E |  |  |  |  | 0.0681 | 0.0578 | 0.0674 |  |  | 
F173K |  |  |  |  |  | 0.0543 |  |  | 0.0846 | 
S201F |  |  |  |  |  |  | 0.0543 |  | 0.0494 | 
G8H |  |  |  |  |  |  |  | 0.0584 |  | 
V58A |  |  |  |  |  | 0.036 |  |  | 0.083 | 
S130T |  |  | 0.0803 |  |  | 0.0498 |  |  |  | 
E103N |  |  | 0.0616 |  | 0.059 |  | 0.0687 | 0.0671 |  | 
V78Q |  |  |  |  |  |  |  |  | 0.0654 | 
Q75L |  |  |  |  |  | 0.063 |  |  |  | 
Q97V |  |  |  |  |  | 0.0675 | 0.0479 | 0.0674 |  | 
D137W |  |  |  |  |  | 0.0503 | 0.0533 |  |  | 

Same assay, conditions: temperature: 34 °C; time window: 0-4 h after rhamnose induction

Variant | area with substrate ENIYFQS | area with substrate ENSYFQS | area with substrate ENWYFQS | area with substrate ENHYFQS | area with substrate ENTYFQS | area with substrate ENYYFQS
G214T | 0.0753 | 0.0517 | 0.0574 |  |  | 
Q227H |  | 0.0623 |  |  |  | 
L235D |  | 0.075 |  |  |  | 
D79Y |  |  |  | 0.0519 |  | 
D82S |  | 0.0686 |  | 0.0468 | 0.0535 | 
G213E | 0.059 | 0.059 |  | 0.0503 | 0.0291 | 
G214I |  |  |  |  | 0.0559 | 
P89D |  | 0.0415 |  |  |  | 
V157T |  | 0.0947 |  | 0.062 |  | 
K7R |  | 0.0559 | 0.0049 | 0.0508 |  | 
S135E | 0.0604 |  |  | 0.0751 |  | 
F163C | 0.116 |  |  | 0.0764 |  | 
F173K | 0.0704 |  |  | 0.0718 |  | 
S201F | 0.0834 | 0.0564 |  | 0.0725 |  | 
G8H | 0.125 |  |  |  |  | 0.0532
V58A | 0.114 |  |  |  |  | 
S130T | 0.148 | 0.053 |  |  | 0.0759 | 
E103N |  |  |  |  | 0.0589 | 
V78Q |  |  |  |  |  | 0.042
Q75L |  | 0.0581 |  |  |  | 
D137W |  | 0.0373 | 0.0546 |  |  | 
N193V |  | 0.0523 |  |  |  | 

Reference: the supplement of paper PMC12217912
